{"source": "PubChem BioAssay AID488969", "about": "(Vanderbilt High Throughput Screening Facility, 2010)", "note": "In all, about 110,000 compounds were measured (“z-score”: median about -0.1, highest 2% from about 2 on). The list shows a part of the results. Calls of active or inactive are those of the source.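 Rule for the calls: active = z-score in the third read window above 3 or below -3; inactive = the rest.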"}
{"molecular_target": "Metabotropic glutamate receptor 8 (Rattus norvegicus) (UniProt P70579)", "sequence (P70579 whole entry, looked up)": "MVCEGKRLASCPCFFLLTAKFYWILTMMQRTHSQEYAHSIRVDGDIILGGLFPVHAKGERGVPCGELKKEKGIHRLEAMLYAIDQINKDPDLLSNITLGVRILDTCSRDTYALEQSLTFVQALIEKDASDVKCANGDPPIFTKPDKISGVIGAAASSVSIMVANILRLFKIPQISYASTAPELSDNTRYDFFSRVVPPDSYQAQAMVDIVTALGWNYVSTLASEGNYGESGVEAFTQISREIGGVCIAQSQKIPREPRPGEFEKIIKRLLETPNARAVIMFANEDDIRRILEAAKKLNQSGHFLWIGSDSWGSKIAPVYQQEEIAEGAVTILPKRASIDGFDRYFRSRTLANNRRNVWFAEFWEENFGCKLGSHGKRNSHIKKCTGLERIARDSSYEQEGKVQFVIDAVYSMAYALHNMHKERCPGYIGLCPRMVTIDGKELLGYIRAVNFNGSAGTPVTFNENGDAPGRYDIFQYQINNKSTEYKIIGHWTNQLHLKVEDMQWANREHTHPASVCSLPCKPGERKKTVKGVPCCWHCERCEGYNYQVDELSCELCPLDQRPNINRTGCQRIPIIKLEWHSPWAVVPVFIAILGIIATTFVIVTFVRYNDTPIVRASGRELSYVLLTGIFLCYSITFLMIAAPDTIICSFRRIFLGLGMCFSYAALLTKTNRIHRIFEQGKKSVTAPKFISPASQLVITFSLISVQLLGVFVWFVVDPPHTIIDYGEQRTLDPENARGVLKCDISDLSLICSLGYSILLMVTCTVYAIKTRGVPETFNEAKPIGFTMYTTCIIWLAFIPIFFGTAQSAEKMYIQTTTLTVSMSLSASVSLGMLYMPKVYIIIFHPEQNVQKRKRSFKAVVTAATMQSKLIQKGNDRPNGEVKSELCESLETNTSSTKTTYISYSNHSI", "assay": "rat mGluR8 modulators via GIRK flux, primary screen, cell-based, thallium flux, HTS (AID 488969)", "details": "HEK293 rat mGluR8, GIRK (G protein-gated inwardly rectifying potassium channel) thallium flux, FluoZin2; at 10 µM; stronger effect = higher value; submaximal glutamate (EC20) added with thallium"}
{"molecule": "Cc1cc(C(=O)OCC(=O)N2CCCC2)c2ccccc2n1", "z-score": 0.184}
{"molecule": "CCC(Oc1ccccc1)C(=O)N1CCC(C(N)=O)CC1", "note": "(stereo not given)", "z-score": -0.00452}
{"molecule": "COc1cccc(/C=N/n2c(N)nc3ccccc32)c1OC", "z-score": -1.06}
{"molecule": "COCCN(C(=O)c1csnn1)C(C(=O)NC1CCCCC1)c1sccc1C", "note": "(stereo not given)", "z-score": 0.325}
{"molecule": "COc1ccc(-c2cc(C(=O)NN)n(-c3ccccc3)n2)cc1", "z-score": -0.0183}
{"molecule": "Cc1ccc(N2C(=O)N(CC(=O)NC(c3ccccc3)c3ccccc3)C(=O)C2C)cc1", "note": "(stereo not given)", "z-score": -0.506}
{"molecule": "Cn1c(=O)c2c(ncn2CC(=O)N/N=C/c2ccco2)n(C)c1=O", "z-score": 1.59}
{"molecule": "CC(CCc1ccccc1)NC(=O)C1CCN(S(=O)(=O)N2CCCCC2)CC1", "note": "(stereo not given)", "z-score": 0.0266}
{"molecule": "COC(=O)c1ccc(-n2cnc(Cl)n2)c(F)c1", "z-score": -0.211}
{"molecule": "O=C1c2cccnc2C(O)N1Cc1cccs1", "note": "(stereo not given)", "z-score": -0.156}
{"molecule": "CC(C)CCNC(=O)CN(CCCN1CCOCC1)C(=O)Cn1nnc(-c2ccc(F)cc2)n1", "z-score": -0.562}
{"molecule": "Cc1occc1C(=O)NCCc1cccc(Cl)c1", "z-score": -0.377}
{"molecule": "O=C(N/N=C\\c1cccc(Cl)c1)c1ccc(Cn2cccn2)o1", "z-score": -0.386}
{"molecule": "CCOC(=O)CNC(=O)CSc1nc(Cc2cccs2)nc2ccccc12", "z-score": 1.26}
{"molecule": "Cc1cc(-n2c(C)cc(C(=O)CN3C(=O)NC4(CCCCCC4)C3=O)c2C)no1", "z-score": -0.193}
{"molecule": "CCCCCC1CC(/C(C)=N/NC(N)=O)OC1=O", "note": "(stereo not given)", "z-score": 0.0545}
{"molecule": "Cc1ccc(NC(=S)NC2CCCC2)cc1C", "z-score": -0.0629}
{"molecule": "CC1SCCN1S(=O)(=O)c1ccc2ccccc2c1", "note": "(stereo not given)", "z-score": -0.104}
{"molecule": "O=C1CCc2cc(S(=O)(=O)NC(C(=O)NCc3cccnc3)c3ccccc3)ccc2N1", "note": "(stereo not given)", "z-score": -0.174}
{"molecule": "COc1ccc(N(C(=O)CCl)C(C(=O)NC2CCCCC2)c2cccnc2)cc1", "note": "(stereo not given)", "z-score": -0.11}
{"molecule": "COCCNC(=O)Cn1cc(C(=O)c2cccs2)c2ccccc21", "z-score": -0.255}
{"molecule": "CSCC[C@@H](C(=O)NCc1cccs1)N1Cc2ccccc2C1=O", "z-score": -0.0163}
{"molecule": "Nc1nonc1-n1nnc(C(=O)N/N=C/c2ccc(Br)cc2)c1CSC1=NCCS1", "z-score": 1.27}
{"molecule": "CC(=O)c1cc(F)c(N2CCN(c3ccc([N+](=O)[O-])cc3F)CC2)cc1C", "z-score": 0.648}
{"molecule": "O=C1CC2CS(=O)(=O)CC2N1c1ccc(Oc2ccccc2)cc1", "note": "(stereo not given)", "z-score": -0.00875}
{"molecule": "CSc1ncccc1C(=O)OCC(=O)N(C)C1CCS(=O)(=O)C1", "note": "(stereo not given)", "z-score": -0.109}
{"molecule": "Cc1noc(/C=C/N(C)C)c1S(=O)(=O)N1CCc2ccccc21", "z-score": -0.557}
{"molecule": "COC(=O)C1=NN(c2ccc(Cl)cc2)C2C(=O)N(c3ccccc3OC)C(=O)C12", "note": "(stereo not given)", "z-score": -0.00475}
{"molecule": "CCC(C)NC(=S)NNC(=O)c1ccc(C(C)(C)C)cc1", "note": "(stereo not given)", "z-score": 0.0253}
{"molecule": "O=C(COc1ccccc1)N1CCN(C(=O)c2ccco2)CC1", "z-score": 0.264}
{"molecule": "Cc1nn(C(=O)Cn2ccc([N+](=O)[O-])n2)c(C)c1Br", "z-score": -0.0558}
{"molecule": "COc1ccc(CCNS(=O)(=O)c2ccc(S(=O)(=O)N3CCCC3)cc2)cc1OC", "z-score": -0.803}
{"molecule": "CC1CCCCN1S(=O)(=O)c1ccc(S(=O)(=O)N2CCN(c3ccccc3)CC2)cc1", "note": "(stereo not given)", "z-score": -0.215}
{"molecule": "Cc1ccccc1NC(=O)CC1(c2ccc(N(C)C)cc2)C(=O)c2ccccc2C1=O", "z-score": 0.0393}
{"molecule": "Cc1cccc(NC(=O)C2CCN(S(=O)(=O)c3cccc4cccnc34)CC2)c1", "z-score": -0.323}
{"molecule": "CN(C)S(=O)(=O)c1ccc2c(c1)nc(CCC(=O)NCC1CCCCC1)n2C", "z-score": 0.000798}
{"molecule": "O=C(CN1CCOCC1)Nc1ccc(OCc2ccccc2)cc1", "z-score": 0.323}
{"molecule": "O=C(/C=C/c1cccc([N+](=O)[O-])c1)NCCSCc1c(Cl)cccc1Cl", "z-score": -0.218}
{"molecule": "CCNC(=S)NC1CC2CCCC(C1)N2Cc1ccco1", "note": "(stereo not given)", "z-score": -0.317}
{"molecule": "NNC(=O)CC12CC3CC(C1)CC(n1ncnn1)(C3)C2", "z-score": -0.194}
{"molecule": "COc1cc(CNc2nc(C)c([N+](=O)[O-])c(C)c2C#N)cc(OC)c1OC", "z-score": -0.238}
{"molecule": "CCc1ccc(Cn2nnc(C(=O)Nc3ccc(OC)cc3OC)c2N)cc1", "z-score": -0.354}
{"molecule": "CCN(CC)CCn1c(=N)n(CCO)c2ccccc21", "z-score": 0.377}
{"molecule": "CCOC(=O)N1CCN(CCC(=O)Nc2ccc(OC(F)(F)F)cc2)CC1", "z-score": 0.144}
{"molecule": "CCC(C)(NC(=O)CNC(C)=O)C(=O)NC1CCCCC1", "note": "(stereo not given)", "z-score": 1.28}
{"molecule": "CC(=Nc1ccccc1)C1=C(O)CCCC1=O", "z-score": -0.104}
{"molecule": "CC(C)c1ccc(C2NC(C(=O)O)CS2)cc1", "note": "(stereo not given)", "z-score": -0.475}
{"molecule": "O=c1c(C(c2ccccc2)c2c(O)sc3ccccc3c2=O)c(O)sc2ccccc12", "z-score": "active: 7.03"}
{"molecule": "Cc1ccc(NC(=O)C2CC(=O)N(Cc3ccccc3)C2)cc1S(=O)(=O)N1CCCCCC1", "note": "(stereo not given)", "z-score": -0.141}
{"molecule": "COc1cc(/C=C/C(=O)O)cc(S(=O)(=O)Nc2cccc(SC)c2)c1OC", "z-score": -0.0051}
{"molecule": "Cc1ccccc1NC(=O)OCc1cccnc1Sc1ccc(Cl)cc1", "z-score": -0.033}
{"molecule": "COc1ccc(CS(=O)(=O)/C(Cl)=C(/Cl)C(=O)Nc2ccc(OC)nc2)cc1", "z-score": -0.34}
{"molecule": "CCn1c(SCC(=O)c2ccc(Br)cc2)nnc1C(C)NC(=O)Cc1ccc(OC)cc1", "note": "(stereo not given)", "z-score": 0.0709}
{"molecule": "CCc1nnc(NS(=O)(=O)c2ccc(N/C=C/C(=O)c3ccc(C)cc3)cc2)s1", "z-score": -0.0758}
{"molecule": "CCCCC(=O)Nc1ccc2c(c1)OCCO2", "z-score": -0.139}
